Source: the supplement of paper PMC6531468
Some of the results follow. Read counts after selection give these values, which scatter widely. Each score is taken over the longer molecules that contain the sequence shown.

What follows are sequences tested on IMP3 KH1-4 (assay: 6-mer SELEX enrichment z-score vs GST control; IMP3 is the RNA-binding protein IGF2BP3; higher = more enriched by binding). Conditions: construct: KH1-4 (164-579); SELEX round: R4.
Method: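 SELEX-seq with GST-tagged IMP3 KH1-4 (Pro164-Lys579) and an N40 RNA pool, round 4. 6-mer z-score of sequence-tag enrichment normalised to the corresponding GST SELEX round; RNA k-mers written as DNA (T for U).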

IMP3 KH1-4, sequence (chain, as listed by the source): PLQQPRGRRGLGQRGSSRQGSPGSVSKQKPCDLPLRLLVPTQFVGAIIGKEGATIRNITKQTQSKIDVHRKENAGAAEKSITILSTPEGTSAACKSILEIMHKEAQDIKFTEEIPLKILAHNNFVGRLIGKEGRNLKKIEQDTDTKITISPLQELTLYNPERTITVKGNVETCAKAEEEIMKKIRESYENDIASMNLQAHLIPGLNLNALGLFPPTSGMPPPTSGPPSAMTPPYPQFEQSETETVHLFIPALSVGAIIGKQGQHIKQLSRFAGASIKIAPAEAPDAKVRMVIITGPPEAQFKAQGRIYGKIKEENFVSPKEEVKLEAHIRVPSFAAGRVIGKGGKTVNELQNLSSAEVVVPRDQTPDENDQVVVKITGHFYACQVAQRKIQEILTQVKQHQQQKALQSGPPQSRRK

Sequence	6-mer SELEX enrichment z-score
ATCATA	2.04
AATAGT	0.663
CCGCTC	-0.204
CAACAT	1.58
CTGAAA	-0.799
GGACCT	-1.22
CTATCT	0.201
TACCAC	-0.504
GGCCCC	0.562
ACCTGC	-1.47
TCTGAC	-0.293
GAGTAC	-0.634
GGTCTA	0.051
GCAGGG	0.959
TCCCAC	-0.717
TCGCAA	0.167
TGCGCC	-0.457
CCTAGA	-0.899
ACAGCA	0.992
TGTGAA	0.498

Sequence	6-mer SELEX enrichment z-score
TCGCGC	-0.711
ACACCT	-0.705
ATGTTA	0.509
CCCCTC	-0.428
TGGTTT	0.006
GTTCTT	0.222
GGCACG	1.97
TCCGAT	-0.333
TTAAAT	0.974
CGTAGC	-1.99
ATTCTC	0.504
ACCCCG	-1.16
CAACTT	0.31
CGGAGA	0.033
ATAAGG	0.882
CGCAGA	-0.415
GGGTTC	0.078
CCCAAG	-2.08
GTAAGC	-0.357
ATCCGT	-0.073

These sequences were tested on IMP3 RRM1-2 in the same assay as above. Conditions: construct: RRM1-2 (1-163); SELEX round: R2.
Method: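 SELEX-seq with GST-tagged IMP3 RRM1-2 (Met1-Asn163) and an N40 RNA pool, round 2. 6-mer enrichment z-score normalised to GST SELEX. RNA written as DNA (T = U).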

IMP3 RRM1-2, sequence (chain, as listed by the source): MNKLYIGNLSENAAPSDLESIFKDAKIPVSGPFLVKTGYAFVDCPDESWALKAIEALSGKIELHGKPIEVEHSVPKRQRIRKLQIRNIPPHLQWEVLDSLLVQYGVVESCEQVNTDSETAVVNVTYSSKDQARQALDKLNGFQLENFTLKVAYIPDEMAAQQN

Sequence	6-mer SELEX enrichment z-score
ATCATA	2.58
AATAGT	-0.232
CCGCTC	0.098
CAACAT	2.48
CTGAAA	-1.34
GGACCT	-0.424
CTATCT	0.352
TACCAC	0.07
GGCCCC	-0.376
ACCTGC	-0.588
TCTGAC	-0.18
GAGTAC	-0.21
GGTCTA	0.197
GCAGGG	0.325
TCCCAC	-0.099
TCGCAA	0.049
TGCGCC	-0.239
CCTAGA	-0.875
ACAGCA	1.81
TGTGAA	-0.793

Sequence	6-mer SELEX enrichment z-score
TCGCGC	0.34
ACACCT	-0.029
ATGTTA	0.072
CCCCTC	-0.057
TGGTTT	0.509
GTTCTT	0.462
GGCACG	0.437
TCCGAT	-0.22
TTAAAT	-0.319
CGTAGC	-0.158
ATTCTC	0.442
ACCCCG	-1.03
CAACTT	0.1
CGGAGA	-0.941
ATAAGG	-0.135
CGCAGA	-0.044
GGGTTC	0.399
CCCAAG	-1.24
GTAAGC	-0.11
ATCCGT	-0.071

These sequences were tested on IMP3 KH1-2 in the same assay as above. Conditions: construct: KH1-2 (164-376); SELEX round: R4.
Method: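 SELEX-seq with GST-tagged IMP3 KH1-2 (Pro164-Phe376) and an N40 RNA pool, round 4 (stringent 300/600 mM KCl washes). 6-mer z-score of sequence-tag enrichment normalised to the corresponding GST SELEX round; RNA k-mers written as DNA (T for U).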

IMP3 KH1-2, sequence (chain, as listed by the source): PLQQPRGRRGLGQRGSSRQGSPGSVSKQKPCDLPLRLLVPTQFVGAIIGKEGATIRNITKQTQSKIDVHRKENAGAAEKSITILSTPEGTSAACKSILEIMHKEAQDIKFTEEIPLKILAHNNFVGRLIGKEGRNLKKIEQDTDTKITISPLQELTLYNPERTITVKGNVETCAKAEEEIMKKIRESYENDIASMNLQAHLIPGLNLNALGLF

Sequence	6-mer SELEX enrichment z-score
ATCATA	1.91
AATAGT	0.44
CCGCTC	0.091
CAACAT	1.77
CTGAAA	-0.677
GGACCT	-1.08
CTATCT	0.159
TACCAC	-0.574
GGCCCC	0.84
ACCTGC	-1.32
TCTGAC	-0.175
GAGTAC	-0.634
GGTCTA	0.051
GCAGGG	1.02
TCCCAC	-0.688
TCGCAA	0.174
TGCGCC	-0.336
CCTAGA	-0.904
ACAGCA	1.1
TGTGAA	0.041

Sequence	6-mer SELEX enrichment z-score
TCGCGC	-0.654
ACACCT	-0.661
ATGTTA	0.184
CCCCTC	-0.041
TGGTTT	0.078
GTTCTT	0.235
GGCACG	1.49
TCCGAT	-0.14
TTAAAT	0.877
CGTAGC	-1.85
ATTCTC	0.494
ACCCCG	-1.06
CAACTT	0.285
CGGAGA	-0.084
ATAAGG	0.741
CGCAGA	-0.274
GGGTTC	0.208
CCCAAG	-2.01
GTAAGC	-0.331
ATCCGT	0.072

Each sequence was assayed on IMP3 KH3-4 in the same assay as above. Conditions: construct: KH3-4 (377-579); SELEX round: R4.
Method: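 SELEX-seq with GST-tagged IMP3 KH3-4 (Pro377-Lys579) and an N40 RNA pool, round 4. 6-mer z-score of sequence-tag enrichment normalised to the corresponding GST SELEX round; RNA k-mers written as DNA (T for U).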

IMP3 KH3-4, sequence (chain, as listed by the source): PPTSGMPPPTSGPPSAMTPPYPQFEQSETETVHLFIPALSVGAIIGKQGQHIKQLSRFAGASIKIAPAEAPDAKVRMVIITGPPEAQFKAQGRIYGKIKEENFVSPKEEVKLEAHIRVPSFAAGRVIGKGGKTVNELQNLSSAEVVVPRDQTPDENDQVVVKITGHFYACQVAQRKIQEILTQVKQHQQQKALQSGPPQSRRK

Sequence	6-mer SELEX enrichment z-score
ATCATA	2.08
AATAGT	0.862
CAACAT	1.07
CTGAAA	-0.631
CTATCT	0.162
TACCAC	-0.949
TCTGAC	-0.464
TCCCAC	-1.52
TCGCAA	0.016
CCTAGA	-0.932
TCGCGC	-0.652
ACACCT	-1.15
CCCCTC	-1.01
TGGTTT	0.282
GTTCTT	0.326
GGCACG	1.34
TCCGAT	-0.46
ACCCCG	-1.76
CAACTT	0.026
ATAAGG	1.51
CGCAGA	-0.468
CCCAAG	-2.26
GTAAGC	-0.219
